# Reference: the supplement of paper PMC8728848
# Some of the results follow.
# B1: LSECtin (Homo sapiens), Q6UXB4 (protein)
# chain: MDTTRYSKWGGSSEEVPGGPWGRWVHWSRRPLFLALAVLVTTVLWAVILSILLSKASTERAALLDGHDLLRTNASKQTAALGALKEEVGDCHSCCSGTQAQLQTTRAELGEAQAKLMEQESALRELRERVTQGLAEAGRGREDVRTELFRALEAVRLQNNSCEPCPTSWLSFEGSCYFFSVPKTTWAAAQDHCADASAHLVIVGGLDEQGFLTRNTRGRGYWLGLRAVRHLGKVQGYQWVDGVSLSFSHWNQGEPNDAWGRENCVMMLHTGLWNDAPCDSEKDGWICEKRHNC
# Tests used:
# Experiment in all cases: glycan array binding signal (z-score within array); higher = stronger binding
# Conditions in all cases: glycan notation: IUPAC condensed, linker removed
# [1] = molecular target: Neu5Ac(a2-3)Gal(b1-4)GlcNAc(b1-2)Man(a1-3)[Neu5Ac(a2-3)Gal(b1-4)GlcNAc(b1-2)Man(a1-6)]Man(b1-4)GlcNAc(b1-4)[Fuc(a1-6)]GlcNAc
# Procedure, shortened: (§1)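 Columns mapping to the same glycan were averaged after glycan names were converted to IUPAC-condensed notation. The data come from 3228 arrays in the Consortium for Functional Glycomics database, limited to those with an available protein sequence. Binding is reported as a within-array Z-score averaged across arrays of one protein sequence and across linkers.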
# [2] = molecular target: Neu5Ac(a2-3)Gal(b1-4)GlcNAc(b1-2)Man(a1-3)[Neu5Ac(a2-6)Gal(b1-4)GlcNAc(b1-2)Man(a1-6)]Man(b1-4)GlcNAc(b1-4)GlcNAc
# Procedure, shortened: as §1
# [3] = molecular target: Neu5Ac(a2-3)Gal(b1-4)GlcNAc(b1-2)[Neu5Ac(a2-3)Gal(b1-4)GlcNAc(b1-2)]Man(a1-6)[Neu5Ac(a2-3)Gal(b1-4)GlcNAc(b1-2)Man(a1-3)][GlcNAc(b1-4)]Man(b1-4)GlcNAc(b1-4)GlcNAc
# Procedure, shortened: as §1
# [4] = molecular target: Neu5Ac(a2-3)Gal(b1-4)GlcNAc(b1-2)[Neu5Ac(a2-3)Gal(b1-4)GlcNAc(b1-4)]Man(a1-3)[GlcNAc(b1-4)][Neu5Ac(a2-3)Gal(b1-4)GlcNAc(b1-2)[Neu5Ac(a2-3)Gal(b1-4)GlcNAc(b1-6)]Man(a1-6)]Man(b1-4)GlcNAc(b1-4)GlcNAc
# Procedure, shortened: as §1
# [5] = molecular target: Neu5Ac(a2-3)Gal(b1-4)GlcNAc(b1-2)[Neu5Ac(a2-3)Gal(b1-4)GlcNAc(b1-4)]Man(a1-3)[GlcNAc(b1-4)][Neu5Ac(a2-3)Gal(b1-4)GlcNAc(b1-4)Man(a1-6)]Man(b1-4)GlcNAc(b1-4)GlcNAc
# Procedure, shortened: as §1
# [6] = molecular target: Neu5Ac(a2-3)Gal(b1-4)GlcNAc(b1-2)[Neu5Ac(a2-3)Gal(b1-4)GlcNAc(b1-6)]Man(a1-6)[Neu5Ac(a2-3)Gal(b1-4)GlcNAc(b1-2)Man(a1-3)]Man(b1-4)GlcNAc(b1-4)GlcNAc
# Procedure, shortened: as §1
# [7] = molecular target: Neu5Ac(a2-3)Gal(b1-4)GlcNAc(b1-2)[Neu5Ac(a2-3)Gal(b1-4)GlcNAc(b1-6)]Man(a1-6)[Neu5Ac(a2-3)Gal(b1-4)GlcNAc(b1-2)Man(a1-3)][GlcNAc(b1-4)]Man(b1-4)GlcNAc(b1-4)GlcNAc
# Procedure, shortened: as §1
# [8] = molecular target: Neu5Ac(a2-3)Gal(b1-4)GlcNAc(b1-3)Gal
# Procedure, shortened: as §1
# [9] = molecular target: Neu5Ac(a2-3)Gal(b1-4)GlcNAc(b1-3)Gal(b1-3)GlcNAc
# Procedure, shortened: as §1
# [10] = molecular target: Neu5Ac(a2-3)Gal(b1-4)GlcNAc(b1-3)Gal(b1-4)GlcNAc
# Procedure, shortened: as §1
# [11] = molecular target: Neu5Ac(a2-3)Gal(b1-4)GlcNAc(b1-3)Gal(b1-4)GlcNAc(b1-2)Man(a1-3)[Neu5Ac(a2-3)Gal(b1-4)GlcNAc(b1-3)Gal(b1-4)GlcNAc(b1-2)Man(a1-6)]Man(b1-4)GlcNAc(b1-4)GlcNAc
# Procedure, shortened: as §1
# [12] = molecular target: Neu5Ac(a2-3)Gal(b1-4)GlcNAc(b1-3)Gal(b1-4)GlcNAc(b1-3)Gal(b1-4)GlcNAc
# Procedure, shortened: as §1
# [13] = molecular target: Neu5Ac(a2-3)Gal(b1-4)GlcNAc(b1-3)Gal(b1-4)GlcNAc(b1-3)Gal(b1-4)GlcNAc(b1-2)Man(a1-3)[Neu5Ac(a2-3)Gal(b1-4)GlcNAc(b1-3)Gal(b1-4)GlcNAc(b1-3)Gal(b1-4)GlcNAc(b1-2)Man(a1-6)]GalNAc
# Procedure, shortened: as §1
# [14] = molecular target: Neu5Ac(a2-3)Gal(b1-4)GlcNAc(b1-3)Gal(b1-4)GlcNAc(b1-3)GalNAc
# Procedure, shortened: as §1
# [15] = molecular target: Neu5Ac(a2-3)Gal(b1-4)GlcNAc(b1-3)Gal(b1-4)GlcNAc(b1-3)[Neu5Ac(a2-3)Gal(b1-4)GlcNAc(b1-3)Gal(b1-4)GlcNAc(b1-6)]GalNAc
# Procedure, shortened: as §1
# [16] = molecular target: Neu5Ac(a2-3)Gal(b1-4)GlcNAc(b1-3)Gal(b1-4)GlcNAc(b1-6)[Gal(b1-3)]GalNAc
# Procedure, shortened: as §1
# [17] = molecular target: Neu5Ac(a2-3)Gal(b1-4)GlcNAc(b1-3)Gal(b1-4)[Fuc(a1-3)]GlcNAc
# Procedure, shortened: as §1
# [18] = molecular target: Neu5Ac(a2-3)Gal(b1-4)GlcNAc(b1-3)GalNAc
# Procedure, shortened: as §1
# [19] = molecular target: Neu5Ac(a2-3)Gal(b1-4)GlcNAc(b1-3)[Neu5Ac(a2-3)Gal(b1-4)GlcNAc(b1-6)]GalNAc
# Procedure, shortened: as §1
# [20] = molecular target: Neu5Ac(a2-3)Gal(b1-4)GlcNAc(b1-6)GalNAc
# Procedure, shortened: as §1
# [21] = molecular target: Neu5Ac(a2-3)Gal(b1-4)GlcNAc(b1-6)[Gal(b1-3)]GalNAc
# Procedure, shortened: as §1
# [22] = molecular target: Neu5Ac(a2-3)Gal(b1-4)GlcNAc(b1-6)[Neu5Ac(a2-3)Gal(b1-3)]GalNAc
# Procedure, shortened: as §1
# [23] = molecular target: Neu5Ac(a2-3)Gal(b1-4)GlcNAc6S
# Procedure, shortened: as §1
# [24] = molecular target: Neu5Ac(a2-3)Gal(b1-4)[Fuc(a1-3)]GlcNAc
# Procedure, shortened: as §1
# [25] = molecular target: Neu5Ac(a2-3)Gal(b1-4)[Fuc(a1-3)]GlcNAc(b1-2)Man
# Procedure, shortened: as §1
# [26] = molecular target: Neu5Ac(a2-3)Gal(b1-4)[Fuc(a1-3)]GlcNAc(b1-3)Gal
# Procedure, shortened: as §1
# [27] = molecular target: Neu5Ac(a2-3)Gal(b1-4)[Fuc(a1-3)]GlcNAc(b1-3)Gal(b1-4)GlcNAc
# Procedure, shortened: as §1
# [28] = molecular target: Neu5Ac(a2-3)Gal(b1-4)[Fuc(a1-3)]GlcNAc(b1-3)Gal(b1-4)[Fuc(a1-3)]GlcNAc(b1-3)Gal(b1-4)[Fuc(a1-3)]GlcNAc
# Procedure, shortened: as §1
# [29] = molecular target: Neu5Ac(a2-3)Gal(b1-4)[Fuc(a1-3)]GlcNAc(b1-3)GalNAc
# Procedure, shortened: as §1
# [30] = molecular target: Neu5Ac(a2-3)Gal(b1-4)[Fuc(a1-3)]GlcNAc(b1-6)[Gal(b1-3)]GalNAc
# Procedure, shortened: as §1
# [31] = molecular target: Neu5Ac(a2-3)Gal(b1-4)[Fuc(a1-3)]GlcNAc(b1-6)[Neu5Ac(a2-3)Gal(b1-3)]GalNAc
# Procedure, shortened: as §1
# [32] = molecular target: Neu5Ac(a2-3)Gal(b1-4)[Fuc(a1-3)]GlcNAc6S
# Procedure, shortened: as §1
# [33] = molecular target: Neu5Ac(a2-3)Gal6S(b1-4)GlcNAc
# Procedure, shortened: as §1
# [34] = molecular target: Neu5Ac(a2-3)Gal6S(b1-4)[Fuc(a1-3)]GlcNAc
# Procedure, shortened: as §1
# Neu5Ac(a2-3)GalNAc = molecular target: Neu5Ac(a2-3)GalNAc
# Procedure, shortened: as §1
# [35] = molecular target: Neu5Ac(a2-3)GalNAc(b1-4)GlcNAc
# Procedure, shortened: as §1
# [36] = molecular target: Neu5Ac(a2-3)[GalNAc(b1-4)]Gal(b1-4)Glc
# Procedure, shortened: as §1
binder,measurement,setting,value
B1,glycan array binding signal (z-score),[1],-0.128
same,glycan array binding signal (z-score),[2],-0.179
same,glycan array binding signal (z-score),[3],-0.146
same,glycan array binding signal (z-score),[4],-0.134
same,glycan array binding signal (z-score),[5],-0.137
same,glycan array binding signal (z-score),[6],-0.104
same,glycan array binding signal (z-score),[7],-0.135
same,glycan array binding signal (z-score),[8],-0.138
same,glycan array binding signal (z-score),[9],-0.215
same,glycan array binding signal (z-score),[10],-0.239
same,glycan array binding signal (z-score),[11],-0.133
same,glycan array binding signal (z-score),[12],-0.196
same,glycan array binding signal (z-score),[13],-0.124
same,glycan array binding signal (z-score),[14],-0.134
same,glycan array binding signal (z-score),[15],-0.129
same,glycan array binding signal (z-score),[16],-0.122
same,glycan array binding signal (z-score),[17],-0.103
same,glycan array binding signal (z-score),[18],-0.208
same,glycan array binding signal (z-score),[19],-0.137
same,glycan array binding signal (z-score),[20],-0.133
same,glycan array binding signal (z-score),[21],-0.204
same,glycan array binding signal (z-score),[22],-0.215
same,glycan array binding signal (z-score),[23],-0.112
same,glycan array binding signal (z-score),[24],-0.193
same,glycan array binding signal (z-score),[25],-0.133
same,glycan array binding signal (z-score),[26],0.027
same,glycan array binding signal (z-score),[27],-0.058
same,glycan array binding signal (z-score),[28],-0.177
same,glycan array binding signal (z-score),[29],4.08
same,glycan array binding signal (z-score),[30],-0.06
same,glycan array binding signal (z-score),[31],0.235
same,glycan array binding signal (z-score),[32],-0.201
same,glycan array binding signal (z-score),[33],-0.124
same,glycan array binding signal (z-score),[34],-0.196
same,glycan array binding signal (z-score),Neu5Ac(a2-3)GalNAc,-0.21
same,glycan array binding signal (z-score),[35],-0.22
same,glycan array binding signal (z-score),[36],-0.167
